According to PubChem BioAssay AID1476 (National Center for Advancing Translational Sciences (NCATS), 2009):
About 4,500 (2.2%) of roughly 200,000 compounds were called active. Inconclusive means that the source gave no clear call. Such entries were picked first, then a sample of the others. Calls follow the shape of the dose curve; as a rule, active = well fitted inhibition curve with a large enough effect; inconclusive = small, poorly fitted or top-dose-only effect, or effect the other way; inactive = flat fitted curve, though single readings scatter. Potencies beside an inconclusive call are fits to weak or partial responses and may not hold up.
Also: nearly all actives have a fitted effect of over 40% in size.
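For max response, negative = inhibition in this document: plate controls were enzyme without inhibitor for no effect and buffer without enzyme for full effect.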
Potency is read from the fitted curve at half-maximal effect; tags tell the direction and shape of the fitted curve.

What follows are compounds tested against Cruzipain (Trypanosoma cruzi) (UniProt P25779) (assay: qHTS Assay for Promiscuous and Specific Inhibitors of Cruzain (without detergent)). Conditions: purified cruzain, Z-FR-AMC fluorescence, no detergent.
UniProt P25779, sequence (P25779 whole entry, looked up): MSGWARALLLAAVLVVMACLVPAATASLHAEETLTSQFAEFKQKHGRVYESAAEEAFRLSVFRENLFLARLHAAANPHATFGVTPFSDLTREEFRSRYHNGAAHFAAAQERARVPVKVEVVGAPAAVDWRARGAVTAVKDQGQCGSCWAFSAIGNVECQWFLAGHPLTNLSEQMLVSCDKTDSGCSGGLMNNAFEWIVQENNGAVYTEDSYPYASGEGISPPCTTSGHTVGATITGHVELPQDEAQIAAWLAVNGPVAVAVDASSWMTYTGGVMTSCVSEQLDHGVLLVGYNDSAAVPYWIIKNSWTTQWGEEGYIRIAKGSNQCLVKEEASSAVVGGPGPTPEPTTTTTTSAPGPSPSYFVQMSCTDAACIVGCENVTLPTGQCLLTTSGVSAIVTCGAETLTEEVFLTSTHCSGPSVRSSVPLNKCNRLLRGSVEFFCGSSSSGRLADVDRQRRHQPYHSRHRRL
Method in brief: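 Purified cruzain at 1.5 nM, pre-incubated 15 min with compound at room temperature in 100 mM sodium acetate pH 5.5, 5 mM DTT, 0.00005% Triton X-100. Reaction started with 2 uM Z-FR-AMC; AMC fluorescence increase over 60 s gives rate.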
In the case of N#Cc1c(-c2cccc(F)c2)cc(-c2ccccc2)nc1Br, the Potency is reported as inconclusive: 39.8 µM [inhibitor, single point]. For Cc1cc(/C=C2/SC(=O)NC2=O)c(C)n1-c1ccc(N2CCOCC2)cc1, the max response, negative = inhibition was inactive: 17.1%. With CCOC(=O)N1CCN(C(=O)C2CCN(S(=O)(=O)c3ccc(Cl)cc3)CC2)CC1 the Potency was inconclusive: 20 µM [activator, single point]. With COC(=O)[C@@]1(Cc2ccc(F)cc2)[C@H]2c3cc(C(=O)N4CCCC4)n(CCN4CNCC4=O)c3C[C@H]2CN1C(=O)c1ccccc1 the Potency was inconclusive: 25.1 µM [activator, partial curve]. With COc1cc(NC(=O)c2cccc3c2C(=O)N(C2CCCCC2)C3)cc(OC)c1 the max response, negative = inhibition was inactive: 8.85%. In the case of c1ccc(-c2nc(NCC3CCCO3)c3oc4ccccc4c3n2)cc1 (stereo not given), the Potency is reported as inconclusive: 1 µM [inhibitor, single point]. With O=C(/C=C\c1ccc2c(c1)OCO2)Nc1nnc(SCC(=O)OCc2ccccc2)s1 the Potency was active: 5.01 µM. For N#CC(C#N)=C1C=CC=CN1/C(=C\c1ccccc1Cl)C(=O)c1ccccc1, the Potency was inconclusive: 39.8 µM [inhibitor, single point]. In the case of Cc1cc(C)cc(OCc2nnc(SCC(=O)N3CCN(c4ccccc4)CC3)o2)c1, the Potency is reported as inconclusive: 39.8 µM [inhibitor, single point]. In the case of CCOC(=O)C1=C(Cn2cnc3ccccc32)NC(=O)NC1c1cc(C)ccc1C (stereo not given), the Potency is reported as inconclusive: 31.6 µM [inhibitor, single point]. Cc1nn(-c2ccccc2)c2c1C(c1cccnc1)N1C=C(S(=O)(=O)N3CCCCC3)C=CC1=N2 (stereo not given) was tested, and the Potency was inconclusive: 31.6 µM [activator, single point]. With Oc1c(C(c2ccc(Cl)cc2)N2CCC3(CC2)OCCO3)sc2nc(-c3ccco3)nn12 (stereo not given) the Potency was inconclusive: 39.8 µM [activator, single point]. For COc1ccc(C(=O)N2CCC(C(=O)O)CC2)cc1, the max response, negative = inhibition was inactive: 2.01%. With COc1ccccc1CN1CC2(CCN(C(=O)c3cnccn3)CC2)C1 the max response, negative = inhibition was inactive: -0.756%. CCOc1ccc(CCNC(=O)c2cnc3c(-c4ccc(F)cc4)c(C)nn3c2C)cc1OCC was tested, and the max response, negative = inhibition was inactive: -1.19%. For Cc1ccc(NC(=O)Cn2c(=O)n(Cc3ccco3)c(=O)c3sc4ccccc4c32)cc1C, the max response, negative = inhibition was inactive: 20.4%. COc1cccc(/C=C/c2nc(C#N)c(NCCc3ccc(OC)c(OC)c3)o2)c1 was tested, and the Potency was inconclusive: 39.8 µM [activator, single point]. Cc1nn(C(=O)c2ccc(Br)cc2)c(C)c1S(=O)(=O)N1CCOCC1 was tested, and the max response, negative = inhibition was inactive: -5.13%. CCc1ccc(-c2[nH]c3c(c2-c2sc(C)c(C(=O)OC)c2O)c(=O)[nH]c(=O)n3C)cc1 was tested, and the Potency was inconclusive: 6.31 µM [activator, single point]. N#Cc1c(NC(=O)CSc2ncnc3c2cnn3-c2ccccc2Cl)sc2c1CCCC2 was tested, and the Potency was active: 3.16 µM. COc1ccc(Cl)cc1-n1c(/C=C/c2cccc3ccccc23)nc2ccccc2c1=O was tested, and the Potency was active: 31.6 µM. O=C(Nc1cccc(Cl)c1)c1cccc(Oc2ccc([N+](=O)[O-])cc2Cl)c1 was tested, and the Potency was inconclusive: 39.8 µM [inhibitor, single point]. For COc1ccc(C(=O)Nc2ccc3nc(N4CCC(C)CC4)cc(C)c3c2)cc1, the Potency was inconclusive: 31.6 µM [inhibitor, single point]. CCOC(=O)CNC(=O)CSc1nnc(-c2cccc(C)c2)n1-c1ccc(OC)cc1 was tested, and the Potency was inconclusive: 20 µM [activator, partial curve]. For Cc1cccc2cc(CN(Cc3cccs3)C(c3nnnn3C3CCCC3)C(C)C)c(=O)[nH]c12 (stereo not given), the Potency was inconclusive: 25.1 µM [inhibitor, partial curve, poor fit]. For Cc1ccccc1-c1noc(CCC(=O)Nc2cccc(C)c2C)n1, the max response, negative = inhibition was inactive: -12.7%. With Cc1ccc(-c2nc(N/N=C/c3ccccc3[N+](=O)[O-])c3ccccc3n2)cc1 the Potency was inconclusive: 31.6 µM [inhibitor, single point]. In the case of COc1ccc(NC(=O)Cc2coc3cc(C)ccc23)cc1S(=O)(=O)N1CCOCC1, the Potency is reported as inconclusive: 39.8 µM [activator, single point]. With CCOC(=O)N1CCN(C(=O)CS(=O)(=O)c2cn(Cc3ccccc3Cl)c3ccccc23)CC1 the Potency was inconclusive: 39.8 µM [activator, single point]. O=C1NC(=S)N/C1=C/c1ccc(-c2c(Br)cc([N+](=O)[O-])cc2Br)o1 was tested, and the Potency was active: 20 µM. For Cn1c(NCCO)nc2c(c1=O)C1(CCCCC1)Cc1ccccc1-2, the Potency was inconclusive: 31.6 µM [activator, single point]. Cn1c(C(C(=O)NCC2CCCO2)N(CCc2ccccc2)C(=O)Cn2nnc3ccccc32)nc2ccccc21 (stereo not given) was tested, and the Potency was inconclusive: 39.8 µM [activator, single point]. For COc1ccc2[nH]cc(CCNc3cc(-c4ccoc4)ncn3)c2c1, the max response, negative = inhibition was inactive: -2.41%. COc1ccc(-c2cn3c(C)c(C(=O)Nc4cccc(C)n4)sc3n2)cc1 was tested, and the Potency was inconclusive: 39.8 µM [activator, single point]. For COc1cc(/C=N/Nc2cccc(C)c2)ccc1OC(=O)c1ccco1, the Potency was active: 15.8 µM. With Cc1cccc(S(=O)(=O)Nc2nc3ccccc3nc2NCc2ccc3c(c2)OCO3)c1 the Potency was inconclusive: 39.8 µM [inhibitor, single point]. For COc1ccccc1N1CCN(C(=O)CN(c2ccc(C)c(C)c2)S(C)(=O)=O)CC1, the Potency was inconclusive: 39.8 µM [activator, single point]. With Cc1cc(C)cc(-n2c(SCC(=O)NCc3ccco3)nc3ccccc3c2=O)c1 the Potency was inconclusive: 39.8 µM [inhibitor, single point]. With CCn1cc(CCC(=O)NCc2ccccc2OC)c2ccccc21 the max response, negative = inhibition was inactive: -19.6%. For C[C@@]12CC[C@@H]3c4ccc(O)cc4C[C@H](CCCCCCCCCS(=O)CCCC(F)(F)C(F)(F)F)[C@H]3[C@@H]1CC[C@@H]2O (stereo not given in full), the Potency was inconclusive: 39.8 µM [activator, single point].
